Experimental data taken from PubChem BioAssay AID1159614 (National Center for Advancing Translational Sciences (NCATS), 2016).
Out of some 45,000 compounds screened, about 65 (0.1%) were called active. Calls come from the whole dose curve; as a rule, active = well fitted activation curve with a large enough effect; inconclusive = small, poorly fitted or top-dose-only effect; inactive = no such curve, though single readings can be large or run the other way. The list shows a part of the results.

Molecular target: Galactocerebrosidase (Homo sapiens) (UniProt P54803)
Chain of UniProt P54803 (P54803 whole entry, looked up): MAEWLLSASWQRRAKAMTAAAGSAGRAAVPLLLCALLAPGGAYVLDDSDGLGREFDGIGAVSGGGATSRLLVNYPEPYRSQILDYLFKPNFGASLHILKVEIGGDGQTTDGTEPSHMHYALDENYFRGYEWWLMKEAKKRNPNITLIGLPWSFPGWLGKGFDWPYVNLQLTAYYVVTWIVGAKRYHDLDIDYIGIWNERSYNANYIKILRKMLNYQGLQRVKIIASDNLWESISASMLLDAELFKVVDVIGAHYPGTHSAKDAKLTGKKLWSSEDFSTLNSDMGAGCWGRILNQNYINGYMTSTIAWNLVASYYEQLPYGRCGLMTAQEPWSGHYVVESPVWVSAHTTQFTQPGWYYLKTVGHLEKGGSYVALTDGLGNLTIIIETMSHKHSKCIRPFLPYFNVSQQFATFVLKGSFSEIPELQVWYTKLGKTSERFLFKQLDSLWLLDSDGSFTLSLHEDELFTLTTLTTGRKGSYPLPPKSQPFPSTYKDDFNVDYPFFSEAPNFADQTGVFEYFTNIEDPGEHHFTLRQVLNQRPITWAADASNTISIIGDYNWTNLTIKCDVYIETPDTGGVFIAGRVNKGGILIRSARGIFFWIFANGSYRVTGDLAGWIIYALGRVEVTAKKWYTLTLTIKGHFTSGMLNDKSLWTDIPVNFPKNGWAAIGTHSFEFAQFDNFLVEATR
Assay: A Novel Cell-Based Assay to Identify Small Molecules for B -Galactocerebrosidase; note: 0% is about no effect; nearly all actives have a fitted effect of over 65% in size
Conditions: 145M-Twi-hGALC-G270D cells (Twitcher mouse brain line with human GALC G270D), HMU-beta-Gal fluorescence, 48 h; series mostly up to 57.5 µM; activation: at the top concentration
Procedure, shortened: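 Fluorescence readout: HMU-β-gal cleavage by mutant GALC (0.1 mM final, citrate/phosphate pH 5.2 with 1 mg/mL taurocholate), stopped with carbonate/bicarbonate plus Triton X-100. Cells: murine Twitcher 145M-Twi expressing human G270D GALC; qHTS for activators.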

activation, inactive:
Cc1cccn2c(=O)c3cc(C(=O)NC(C)(C)C)n(C)c3nc12 0.863%
CC(=O)c1ccc(NC(=O)C2CCCN(S(=O)(=O)c3ccc(Br)s3)C2)cc1 (stereo not drawn) -15.4%
COC(=O)c1sc2cccc(F)c2c1S(=O)(=O)NC(C)c1ccccc1 (stereo not drawn) -13.6%
CCc1ccc(NCc2cc3ccc(OC)cc3n(CC(=O)Nc3ccccc3OC)c2=O)cc1 18.1%
CCOc1ccc(N(CC)C(=O)c2cc3c(s2)-c2ccc(Cl)cc2SC3)cc1 -19.5%
Cc1ccn2c(Nc3ccc4c(c3)OCO4)c(-c3ccc(C)o3)nc2c1 -8.97%
Cc1ccc(C(=O)NCCSc2c[nH]c3ccccc23)cc1C -18.5%
Cc1cccc(NC(=O)c2ccc(F)c(S(=O)(=O)NCc3ccc4c(c3)OCO4)c2)c1 0.103%
Cc1cc(C)cc(NC(=O)CSc2oc(-c3cccs3)nc2S(=O)(=O)c2ccc(Br)cc2)c1 -7.03%
CCOC(=O)C1CCN(C(=O)c2ccc3c(=O)n4nc(Nc5ccccc5)sc4nc3c2)CC1 -3.14%
CCCN(CCC)C(=O)Cn1c(=O)n(-c2ccc(CC)cc2)c(=O)c2c3c(sc21)CCC3 -0.558%
COc1ccc(-c2c(C)c3ccc(O)c(CN4CCCCC4C)c3oc2=O)cc1OC (stereo not drawn) -16.9%
CC(=O)NC(=O)c1ccccc1O -7.9%
COc1ccc(NC(=O)C2(S(=O)(=O)c3ccc(C)cc3)CC2)c(OC)c1 -10.9%
O=C(Nc1ccccc1F)C(c1ccccc1)N1Cc2ccccc2C1=O (stereo not drawn) -12.6%
CCCOC(=O)c1ccc(NC(=O)C2CC(=O)N(c3ccc(C)cc3)C2)cc1 (stereo not drawn) -20.2%
O=C(CSc1nccn1Cc1ccc(F)cc1)NC1CCCC1 -13.3%
CCOc1ccc(NC(c2ccc(Cl)cc2)c2nnc(-c3cccc(F)c3)o2)cc1 (stereo not drawn) -12%
Cc1ccc(CN(C(=O)COc2cccc(Cl)c2)c2ccccn2)o1 7.97%
CCSc1ncc(Cl)c(C(=O)Nc2ccc(S(=O)(=O)N3CCCCC3CC)cc2)n1 (stereo not drawn) -13.2%
COc1cc(O)ccc1-c1nc2ccc(Br)cn2c1Nc1ccccc1C -24.6%
CCC(=O)N1c2ccccc2CC1C(=O)NCCc1ccccc1OC (stereo not drawn) -3.66%
Cc1ccc(C)c(-c2ccc(=O)n(C(C)C(=O)Nc3ccccc3C(F)(F)F)n2)c1 (stereo not drawn) -7.44%
CCCCNC(=O)CSc1nc(-c2ccc(OC)cc2)cc(C(F)(F)F)n1 -15.2%
CN1CC(=O)N2[C@H](c3ccc4c(c3)OCO4)c3[nH]c4ccccc4c3C[C@@H]2C1=O -16.9%
CCc1ccc(-n2nc(C)c3c(C(=O)Nc4ccc(Cl)cc4)cc(C)nc32)cc1 13.5%
CCCOc1ccccc1C(=O)N1CCCCC1CCN1CCCCC1 (stereo not drawn) -7.94%
COC(=O)c1ccccc1NC(=O)CCn1c(=O)c2cccn2c2cccnc21 1.68%
Cc1noc(-c2ccc(N(C)Cc3ccccc3)c([N+](=O)[O-])c2)n1 -12%
Cc1ccc(OCC(=O)Nc2nnc(SCc3cc(=O)n4cc(C)ccc4n3)s2)cc1 1.87%
COc1ccc(C(=O)Nc2cc(-c3nc4ncccc4o3)ccc2C)cc1Br -9.49%
O=C(NC1CC(=O)N(c2cccc(F)c2)C1)c1ccc(S(=O)(=O)N2CCCCC2)cc1 (stereo not drawn) -3.37%
COc1ccc(OC)c(-n2nnc(-c3nc(-c4ccc5c(c4)OCO5)no3)c2C)c1 -16.6%
COc1ccc(OCc2nc(-c3ccc(OC)c(OC)c3)no2)cc1 1.21%
CC(=O)Nc1ccc(C)cc1-c1nc2ccccc2n(Cc2cccc(Br)c2)c1=O -12%
COc1cccc(NC(=O)CSc2nnc3[nH]c(=O)cc(-c4ccccc4)n23)c1 -2.97%
CCOC(=O)C1CCCN(C(=O)c2ccc(C)c(NC(=O)c3nsc4ccccc34)c2)C1 (stereo not drawn) -22.3%
CCCc1nc2nc(C)c(NS(=O)(=O)c3ccc(C)c(C)c3)c(=O)n2[nH]1 -15.8%
C1CCC(C(CC2CCCCN2)C2CCCCC2)CC1 (stereo not drawn) -39.5%
COc1ccc(CCNc2oc(/C=C/c3ccc(OC)c(OC)c3)nc2C#N)cc1 -2.41%
CCc1ccc(NS(=O)(=O)c2cc(Br)cc3c2N(C(C)=O)CC3)cc1 -4.93%
CC(=O)Nc1ccc(NC(=O)c2ccc3c(c2)CCN3S(=O)(=O)c2ccc(Cl)cc2)cc1 -20.6%
COc1cccc(-n2ccnc2SCC(=O)Nc2nc3ccc(C)cc3s2)c1 3.45%
CC(=O)Nc1c(C)nn(-c2ccccc2)c1N1CCC(C(=O)Nc2ccc(C)cc2Cl)CC1 0.479%
CS(=O)(=O)c1ccc(-c2cn3ccccc3n2)cc1 8.42%
CCCCCCCCCCCCOCCOCCOCCOCCOCCOCCOCCOCCOCCO -13.9%
COc1ccc(N2CCN(C(=O)c3c(C)oc4nc(C)nc(N5CCCC5)c34)CC2)cc1 -11.4%
Cc1ccc(N(C)S(=O)(=O)c2c(-c3ccccc3)csc2C(=O)O)cc1 -10.9%
Cc1cc2nc(-c3cccc(NC(=O)COc4ccc(C(C)C)cc4)c3)oc2cc1C -12.1%
Cc1ccccc1-c1nnc(SCC(=O)N2CCCc3ccccc32)o1 -10.8%
COc1ccc(-c2nc(C)c(CCNC(=O)c3cccs3)s2)cc1 -29.5%
Cc1ccc(-c2nc(C(=O)Nc3cccc(C#N)c3)c3n2CCCCC3)cc1 -32.1%
Cc1cccc(C(=O)OCc2cc(=O)n3nc(C4CC4)sc3n2)c1 21.7%
O=C1c2ccccc2C(=O)C1(c1ccccc1)N1CCN(c2cccc(C(F)(F)F)c2)CC1 -6.12%
CCOc1ccccc1NC(=O)CCc1nc(-c2cccc(C)c2)no1 -27.2%
COc1ccc(-c2nc(SCC(=O)Nc3ccc4c(c3)OCO4)c(-c3ccc(F)cc3)[nH]2)cc1OC -19.3%
CC(C)Oc1ccc(CNS(=O)(=O)c2csc(C(N)=O)c2)cc1 -4.54%
CCCNC(=O)c1c(NC(=O)c2ccccc2F)sc2c1CCCCC2 -18.2%
Cc1nc(-c2ccc(S(=O)(=O)Nc3ccc(OC(F)(F)F)cc3)cc2)co1 -10.8%
Cc1ccc(NC(=O)N2CCC(CN3CCCCCC3)CC2)c(Cl)c1 -7.23%
CC(C)c1ccc(N2C(=O)CSC23C(=O)N(Cc2ccccc2F)c2ccccc23)cc1 (stereo not drawn) -41.6%
CCC(=O)N1CCc2cc(S(=O)(=O)NCCC(=O)NCc3ccc(OC)cc3)ccc21 -25.2%
COc1cccc(-n2c(=O)c3sccc3n(Cc3cc(=O)n4cc(Cl)ccc4n3)c2=O)c1 0.304%
